The whole screen tested about 360,000 compounds, of which about 740 (0.21%) were called active. This list was built around the results that the source calls inconclusive (neither active nor inactive); the mix of calls is not that of the screen. The call rests on the fitted dose curve; in most records, active means well fitted inhibition curve with a large enough effect; inconclusive means small, poorly fitted or top-dose-only effect; inactive means no such curve, though single readings can be large or run the other way. Potencies of inconclusive entries are left out as doubtful fits.
test system: Plasmodium falciparum AMA1 (3D7) - RON2 peptide interaction; assay: qHTS for Inhibitors of AMA1-RON; Towards Development of Antimalarial Drug Lead: Primary Screen; settings: AlphaScreen AMA1-biotinylated RON2 peptide binding; activity change, negative = inhibition: at 58.2 µM (top of the series) unless noted; further: nearly all actives have a fitted effect of over 45% in size;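 on activity change, negative = inhibition: 0% = vehicle wells and -100% = peptide control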
Outline: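 AMA1 (3D7) with his tag at 25 nM final met compounds first, then biotinylated RON2 peptide at 25 nM; detection used donor plus acceptor beads, 10 µg/mL apiece, read by AlphaScreen after 30 min at room temperature.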
Potency means the concentration at half of the fitted maximal effect; tags describe the fitted curve by direction and shape.

**Q.** For `CC(C)CN(C(=O)COC(=O)c1cc2c(s1)CCC2)C1CCS(=O)(=O)C1` (configuration not stated), which Potency is on record?
**A.** inconclusive [inhibitor, partial curve]

**Q.** For `CSc1nc(C)c(CCO)c(=O)[nH]1`, which Potency is on record?
**A.** inactive

**Q.** With `Cc1cccc(C)c1N=Nc1c(C)cc(O)cc1C` as the compound, how does the Potency read?
**A.** inconclusive [inhibitor, partial curve]

**Q.** Which Potency does the source give for `COc1ccccc1N1CCN(C2=Nc3cccc4cccc2c34)CC1` here?
**A.** inconclusive [inhibitor, partial curve]

**Q.** With `O=C1/C(=C/c2ccccn2)SC(=S)N1c1ccc(O)cc1` as the compound, how does the Potency read?
**A.** inactive

**Q.** For `COc1ccc(OC)c(NC(=O)C2(C)CCN2Cc2cccc(OC)c2OC)c1` (configuration not stated), which Potency is on record?
**A.** inconclusive [inhibitor, single point]

**Q.** Which Potency does the source give for `COc1ccc(NC2=C(NCCO)C(=O)c3ccccc3C2=O)cc1` here?
**A.** inconclusive [inhibitor, single point]

**Q.** `O=C(N/N=C/c1cn(Cc2ccccc2)c2ccccc12)c1ccncc1` was tested. Which Potency did it give?
**A.** inactive

**Q.** For `O=[n+]1c2c(n([O-])c3cc(F)c(N4CCCC4)cc31)CCC2`, which Potency is on record?
**A.** inactive

**Q.** Which Potency does the source give for `CCCCN(C(=O)c1cc(S(=O)(=O)N2CCCCCC2)ccc1OC)c1ccccc1` here?
**A.** inactive

**Q.** Which Potency does the source give for `COc1ccccc1C(=O)NC(=O)COC(=O)c1nc(Cl)ccc1Cl` here?
**A.** inactive

**Q.** `Cc1ccc(C)c(OCC(=O)O/N=C(\N)c2cccc([N+](=O)[O-])c2)c1` was tested. Which Potency did it give?
**A.** inconclusive [inhibitor, full curve]

**Q.** How did the Potency turn out when `Cc1cc(C(F)F)nn1CC(=O)NCc1ccc(Cl)cc1Cl` was run?
**A.** inconclusive [inhibitor, partial curve]

**Q.** Which Potency does the source give for `CC(C)N(C(=O)COC(=O)c1cccc(N(C)C)c1)c1ccccc1` here?
**A.** inconclusive [inhibitor, partial curve]

**Q.** How did the Potency turn out when `c1ccc(-c2ccc(SCc3cccnc3)nn2)nc1` was run?
**A.** inconclusive [inhibitor, partial curve]

**Q.** Which Potency does the source give for `O=C(CSc1n[nH]c(-c2ccccn2)n1)Nc1ccccc1F` here?
**A.** inconclusive [inhibitor, single point]

**Q.** With `O=C1CCC(C(=O)N2CCN(c3ccccc3)CC2)CN1Cc1ccc(Cl)cc1` (configuration not stated) as the compound, how does the Potency read?
**A.** inactive

**Q.** With `Fc1ccccc1C1c2[nH]c3ccccc3c2CCN1Cc1cccn1-c1ncccn1` (configuration not stated) as the compound, how does the Potency read?
**A.** inconclusive [inhibitor, partial curve]

**Q.** Which Potency does the source give for `CCOC(=O)N1CCN(C(=O)CNC(=O)c2nn(-c3ccc(OC)cc3OC)c(=O)c3ccccc23)CC1` here?
**A.** inactive

**Q.** For `O=C1CC(c2ccccc2)=NN1c1ccc([N+](=O)[O-])cc1`, which Potency is on record?
**A.** inconclusive [inhibitor, partial curve]

**Q.** Which Potency does the source give for `C(=C\c1ccccc1)/C=N/N1CCN(Cc2ccccc2)CC1` here?
**A.** inconclusive [inhibitor, full curve]

**Q.** For `CC(=O)c1ccc(OC(=O)N(C)c2ccccc2)cc1`, which Potency is on record?
**A.** inactive

**Q.** Which Potency does the source give for `N=c1c[n+](C2CCCCC2)[n-]o1` here?
**A.** inactive

**Q.** `COCCCNC(=O)c1oc2ccc(S(=O)(=O)N3CCOCC3)cc2c1C` was tested. Which activity change, negative = inhibition did it give?
**A.** inconclusive: -7.87% [inhibitor]

**Q.** Which Potency does the source give for `Cc1ccc(N=C2S/C(=C/c3cccc(OCC(=O)O)c3)C(=O)N2C)cc1C` here?
**A.** inconclusive [inhibitor, partial curve]

**Q.** How did the Potency turn out when `COc1ccccc1N1CCN(C(=O)C2CCCCN2S(=O)(=O)c2ccc(C)cc2)CC1` (configuration not stated) was run?
**A.** inactive

**Q.** Which Potency does the source give for `CC(NC(=O)COC(=O)c1cc(S(=O)(=O)N2CCOCC2)ccc1F)c1ccccc1` (configuration not stated) here?
**A.** inactive

**Q.** With `COc1ccccc1/C=C/C(=O)NC(=S)Nc1ccccn1` as the compound, how does the Potency read?
**A.** inactive

**Q.** With `O=[N+]([O-])c1cc(F)cc(F)c1Nc1ccc(F)cc1` as the compound, how does the Potency read?
**A.** inconclusive [inhibitor, single point]

**Q.** For `CN(Cc1ccccn1)Cc1nc(Cc2ccccc2Cl)no1`, which Potency is on record?
**A.** inactive

**Q.** `COC(=O)c1cc2ccsc2n1Cc1nc(-c2cccc(Cl)c2)oc1C` was tested. Which Potency did it give?
**A.** inactive

**Q.** With `O=C(C1CC1)N1N=C(c2ccc(Cl)cc2)CC1(O)C(F)(F)F` (configuration not stated) as the compound, how does the Potency read?
**A.** inactive

**Q.** How did the Potency turn out when `O=C(CSc1nccc(=O)[nH]1)Nc1cc(C(F)(F)F)ccc1N1CCOCC1` was run?
**A.** inconclusive [inhibitor, full curve, poor fit]

**Q.** How did the Potency turn out when `COc1ccc(/C=C/C(=O)c2cc(Cl)ccc2O)c(OC)c1` was run?
**A.** inconclusive [inhibitor, partial curve]

**Q.** `Cc1onc(-c2c(Cl)cccc2Cl)c1C(=O)Nc1nc(C(C)(C)C)cs1` was tested. Which Potency did it give?
**A.** inconclusive [inhibitor, partial curve]

**Q.** Which Potency does the source give for `COc1ccc2ccccc2c1C(=O)/C=C\c1ccoc1` here?
**A.** inconclusive [inhibitor, single point]

**Q.** With `Cc1c(Cl)cccc1NC(=S)NCCc1ccc(C(F)(F)F)cc1` as the compound, how does the Potency read?
**A.** inactive

**Q.** For `CON(C)c1nc(Oc2ccc(=O)[nH]n2)nc(N(C)C)n1`, which Potency is on record?
**A.** inactive

**Q.** Which Potency does the source give for `CN(C)S(=O)(=O)c1ccc(/C(O)=C2/C(=O)C(=O)N(CCCN3CCOCC3)C2c2ccncc2)cc1` (configuration not stated) here?
**A.** inactive

**Q.** With `COc1ccccc1N1CCN(C(=O)CN(c2ccccc2OC)S(=O)(=O)c2ccccc2)CC1` as the compound, how does the Potency read?
**A.** inactive

**Q.** With `Cc1ccccc1NC(=S)NNc1ncc(C(F)(F)F)cc1Cl` as the compound, how does the Potency read?
**A.** inconclusive [inhibitor, single point]

**Q.** With `CCC(=O)N(CCc1ccccc1)Cc1cc2ccc(OC)cc2[nH]c1=O` as the compound, how does the Potency read?
**A.** inactive

**Q.** With `COc1ccccc1CN1CCNC(=O)C1CC(=O)NCC1CCOCC1` (configuration not stated) as the compound, how does the Potency read?
**A.** inactive

**Q.** How did the Potency turn out when `Cn1ccnc1CN1CCCCC1C(=O)Nc1ccc(Oc2cccnc2)cc1` (configuration not stated) was run?
**A.** inactive

**Q.** How did the Potency turn out when `O=C(CCN1C(=O)C2C3C=CC(C3)C2C1=O)NCCc1ccccc1` (configuration not stated) was run?
**A.** inactive

**Q.** How did the Potency turn out when `COc1ccc(-c2coc3c(C(=O)NCc4ccc(OC)c(OC)c4)cccc23)c(C)c1` was run?
**A.** inconclusive [inhibitor, single point]

**Q.** Which Potency does the source give for `CCSc1nc2ccccc2n1C(=O)/C=C/c1ccc(OC)c(OC)c1` here?
**A.** inactive

**Q.** With `CCCCCCCSc1cc(OC)c(CCN(C)C)cc1OC` as the compound, how does the Potency read?
**A.** inconclusive [inhibitor, single point]

**Q.** `CCN(CC)c1nc(-c2cccc(OC)c2O)nc2ccccc12` was tested. Which Potency did it give?
**A.** inconclusive [inhibitor, partial curve]

**Q.** `COc1ccc(NC(=O)C(CC(C)C)NC(=O)c2ccccc2C)cn1` (configuration not stated) was tested. Which Potency did it give?
**A.** inconclusive [inhibitor, full curve]

**Q.** For `C/C(=N\Nc1nc(N)cc(Cl)n1)c1ccc(Cl)c(Cl)c1`, which Potency is on record?
**A.** inactive

**Q.** How did the Potency turn out when `CSc1ccc(/C=C/C(=O)N2CCCN(C)CC2)cc1` was run?
**A.** inactive

**Q.** How did the Potency turn out when `N#Cc1c(/N=C/c2ccco2)sc2c1CCC2` was run?
**A.** inactive

**Q.** Which Potency does the source give for `CN(C)c1ccc(C(=O)c2ccc(N(C)C)c3ccccc23)cc1` here?
**A.** inconclusive [inhibitor, single point]

**Q.** For `CCOc1ccc(S(=O)(=O)N2CCN(Cc3ccc4c(c3)OCO4)CC2)cc1C`, which Potency is on record?
**A.** inconclusive [inhibitor, partial curve]

**Q.** How did the Potency turn out when `CCCCc1ccc(NC(=S)Nc2ccc(Nc3ccc(OC)cc3)cc2)cc1` was run?
**A.** inconclusive [inhibitor, single point]

**Q.** Which Potency does the source give for `O=C(c1ccccc1)c1ncc(C(F)(F)F)cc1Cl` here?
**A.** inactive

**Q.** `CC(C)(C)S(=O)N1Cc2cc(C(=O)N3CCc4ccccc4C3)nc(-c3cccc(-c4ccncc4)c3)c2[C@H]1CCO` (some centres not stated) was tested. Which Potency did it give?
**A.** inconclusive [inhibitor, partial curve]

**Q.** With `CC1(C)CC(=O)C=C(c2ccc(-c3ccc4[nH]ccc4c3)cc2)C1=O` as the compound, how does the Potency read?
**A.** inconclusive [inhibitor, partial curve]

**Q.** `CCOC(=O)CC(c1ccc([N+](=O)[O-])cc1)n1c(C)ccc1C` (configuration not stated) was tested. Which Potency did it give?
**A.** inactive

**Q.** With `Cc1cccc(-c2nc(C#N)c(N3CCCCCC3)o2)c1` as the compound, how does the Potency read?
**A.** inconclusive [inhibitor, partial curve]

**Q.** With `Cc1ccc(N=C2NC(=O)/C(=C/c3cccn3C)S2)c(C)c1` as the compound, how does the Potency read?
**A.** inconclusive [inhibitor, partial curve]

**Q.** How did the Potency turn out when `O=C(O)c1cc(-c2ccco2)nn1-c1ccc(Cl)cc1` was run?
**A.** inconclusive [inhibitor, single point]

**Q.** For `C=CCSc1nc2c(c(C3CC=CCC3)c1C#N)CCC2` (configuration not stated), which activity change, negative = inhibition is on record?
**A.** inconclusive: -21.5% [inhibitor]

**Q.** How did the Potency turn out when `S=C(NCCc1c[nH]c2ccccc12)NC1CCCC1` was run?
**A.** inconclusive [inhibitor, full curve, poor fit]

**Q.** How did the Potency turn out when `COc1ccccc1CN1CCN(C(=O)COc2ccccc2)CC1` was run?
**A.** inconclusive [inhibitor, single point]

**Q.** Which Potency does the source give for `CSc1nsc(SCC(=O)Nc2ccc3c(c2)OCCO3)n1` here?
**A.** inactive

**Q.** `COc1ccc(OC)c(NC(=O)CN(C)CCOc2ccc(Br)cc2)c1` was tested. Which Potency did it give?
**A.** inconclusive [inhibitor, partial curve]

**Q.** `COc1ccc(C(NC(=O)C(C)C)c2ccc3cccnc3c2O)cc1` (configuration not stated) was tested. Which Potency did it give?
**A.** inactive

**Q.** Which Potency does the source give for `COC(=O)/C(=C\c1ccc(O)cc1)c1nc2ccccc2[nH]1` here?
**A.** inactive

**Q.** How did the Potency turn out when `Cc1ccc2nc(N(CCCN(C)C)C(=O)c3ccc(S(=O)(=O)N4CCc5ccccc5C4)cc3)sc2c1` was run?
**A.** inconclusive [inhibitor, single point]

**Q.** For `C=CCc1ccc(OCCN2CCc3ccccc3C2)c(OC)c1`, which Potency is on record?
**A.** inconclusive [inhibitor, partial curve]

**Q.** For `COc1ccccc1N1CCN(c2ccc([N+](=O)[O-])cc2Cl)CC1`, which Potency is on record?
**A.** inconclusive [inhibitor, partial curve]

**Q.** Which Potency does the source give for `c1coc(-c2nc3ccccc3nc2-c2ccco2)c1` here?
**A.** inactive

**Q.** `COc1cc(CNc2ccc(N3CCOCC3)cc2)ccc1OCC(=O)NC(C)(C)C` was tested. Which Potency did it give?
**A.** inconclusive [inhibitor, single point]

**Q.** How did the Potency turn out when `N=C(N)c1ccc(N=Nc2c(O)ccc3c2[nH]c2ccccc23)cc1` was run?
**A.** active: 25.1 µM

**Q.** For `O=c1cccc2n1CC1CC2CN(Cc2c(Cl)cccc2Cl)C1` (configuration not stated), which Potency is on record?
**A.** inconclusive [inhibitor, partial curve]

Reference: PubChem BioAssay AID720542 (National Center for Advancing Translational Sciences (NCATS), 2013)
